Reference: publication PMC4336329 (PLoS ONE, 2015)
Among all 310,000 compounds or so, about 2,200 (0.71%) showed an effect of 50% or more. The effect is printed as a negative number. This is one part of the list. Where a SMILES comes first, the peptide text is derived from it. [ ]: non-standard residue; d: D form. pGlu = O=C1CC[CH](C(=O)O)N1

target: human ether-à-go-go-related gene (hERG) potassium channel (human, UniProt Q12809); experiment: primary screen, population patch clamp on CHO cells stably expressing hERG
Sequence (Q12809 whole entry, looked up): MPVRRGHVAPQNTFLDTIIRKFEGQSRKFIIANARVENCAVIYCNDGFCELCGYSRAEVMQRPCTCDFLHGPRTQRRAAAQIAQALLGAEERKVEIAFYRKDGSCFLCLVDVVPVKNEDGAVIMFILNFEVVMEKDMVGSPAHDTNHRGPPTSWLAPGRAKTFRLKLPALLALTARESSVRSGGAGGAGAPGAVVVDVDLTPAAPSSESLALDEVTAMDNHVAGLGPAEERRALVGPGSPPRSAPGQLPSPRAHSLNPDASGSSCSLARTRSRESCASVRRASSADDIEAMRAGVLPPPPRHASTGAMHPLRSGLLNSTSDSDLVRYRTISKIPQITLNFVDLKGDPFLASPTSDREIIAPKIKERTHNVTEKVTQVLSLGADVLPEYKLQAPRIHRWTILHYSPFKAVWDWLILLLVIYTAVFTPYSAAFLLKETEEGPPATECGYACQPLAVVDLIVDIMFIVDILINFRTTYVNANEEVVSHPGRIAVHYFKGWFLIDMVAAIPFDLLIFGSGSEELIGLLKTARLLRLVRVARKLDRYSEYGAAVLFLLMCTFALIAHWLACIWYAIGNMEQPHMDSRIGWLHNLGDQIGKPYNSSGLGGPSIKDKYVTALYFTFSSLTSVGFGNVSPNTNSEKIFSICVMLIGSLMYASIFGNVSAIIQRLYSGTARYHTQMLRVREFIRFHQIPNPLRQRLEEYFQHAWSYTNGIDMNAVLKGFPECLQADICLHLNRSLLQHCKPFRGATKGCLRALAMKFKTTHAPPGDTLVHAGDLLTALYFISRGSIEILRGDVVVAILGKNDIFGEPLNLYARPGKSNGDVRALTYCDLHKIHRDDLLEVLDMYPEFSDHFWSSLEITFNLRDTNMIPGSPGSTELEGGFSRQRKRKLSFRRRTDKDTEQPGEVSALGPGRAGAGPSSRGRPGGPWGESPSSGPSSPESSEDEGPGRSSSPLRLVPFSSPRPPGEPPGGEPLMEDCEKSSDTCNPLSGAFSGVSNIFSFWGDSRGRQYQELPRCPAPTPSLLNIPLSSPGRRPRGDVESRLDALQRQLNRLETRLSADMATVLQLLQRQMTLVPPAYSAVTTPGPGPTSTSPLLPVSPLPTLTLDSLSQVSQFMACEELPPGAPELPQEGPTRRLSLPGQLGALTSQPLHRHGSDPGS

| SMILES | hERG current change (%, negative = inhibition) at 1uM [%] |
| --- | --- |
| O=C(Nc1ccccc1)C1CCN(C(=O)c2ccc(Br)cc2)CC1 | -15.9 |
| CC1=C(C#N)C(c2ccc3ncccc3c2)C(C#N)=C(C)N1 | 8.61 |
| CCOc1ccc(C(=O)N2CCN=C2SC)cc1OCC | 8.17 |
| O=C(NCc1ccccc1)C1CCCN(S(=O)(=O)c2ccc(F)cc2)C1 (stereo not shown) | -0.188 |
| COc1ccc2c(c1)CCc1c(C(=O)N3CCCC3)noc1-2 | -5.62 |
| CCN(CC(=O)Nc1ccccc1C(F)(F)F)C(=O)c1ccccc1Sc1ccccc1C#N | 7.19 |
| CN(C1CCCCC1)S(=O)(=O)c1cc2c(cc1Cl)NC(=O)CO2 | 5.19 |
| CC(C)CCn1c(=O)c2ccccc2n2c(CCC(=O)NC3CCN(Cc4ccccc4)CC3)nnc12 | -5.83 |
| Cc1ccc(C(=O)Cn2nnc3ccccc32)cc1[N+](=O)[O-] | 14.9 |
| Cc1cc(N2C(=O)C3CCCN3C2c2sccc2C)no1 (stereo not shown) | 8.22 |
| COC(=O)C(Cc1cnc[nH]1)NC(=O)C1CCC(=O)N1 (stereo not shown) ([pGlu]-His-OMe; configuration not given here) | 29 |
| CCOC(=O)c1cnn(-c2ccccc2)c1-n1cccc1C(=O)C(=O)N(C)C | -1.62 |
| CCC(C)(C)NC(=O)COc1ccc(C(=O)c2ccccc2)cc1 | 8.09 |
| COc1cc(C(=O)NCCCCCC(=O)O)cc(OC)c1OC | -0.515 |
| N#CCCN(C(=O)COC(=O)c1cccc(S(=O)(=O)N2CCCC2)c1)c1ccc(F)cc1 | -11.1 |
| CC1(C)Cc2c(sc3ncn4nc(CCC(=O)O)c(=O)nc4c23)CO1 | 12.4 |
| CC1(OC(=O)C2CCCC2)C(=O)C=C2C=C(c3ccsc3)N(CCCCO)C=C2C1=O (stereo not shown) | 7.62 |
| Cn1nc(C(=O)NC(C)(C)C)c2ccccc21 | -1.53 |
| CCCC[C@@H]1CNC(=S)N1CCc1cccc(F)c1 | 9.74 |
| COCCNC(=O)CNC(=O)c1nn(-c2ccc(OC)c(Cl)c2)c(=O)c2ccccc12 | 12.8 |
| O=P(Nc1ccccc1)(Nc1ccccc1)Oc1ccc(Cl)cc1 | -4.28 |
| Cc1cc(C(F)F)n2nc(C(=O)Nc3ccc(S(=O)(=O)N4CCCC4)cc3)nc2n1 | 7.14 |

| SMILES | hERG current change (%, negative = inhibition) at 1uM [%] |
| --- | --- |
| COc1ccc(-c2nn(-c3ccccc3)cc2/C=N/NS(=O)(=O)c2ccccc2)cc1 | 7.3 |
| CCCCNC(=O)c1cc(-c2ccc3c(c2)OCO3)on1 | 11 |
| CC(NC(=O)CCC(=O)NC(C)C1COc2ccccc2O1)C1COc2ccccc2O1 (stereo not shown) | 2.02 |
| COc1ccccc1N1CC(C(=O)Nc2cccc(C(=O)O)c2)CC1=O (stereo not shown) | 8.66 |
| COc1cccc(NC(=O)COC(=O)c2ccccc2C(=O)N2CCN(c3ccccc3)CC2)c1 | 13.1 |
| Br.COc1ccccc1NS(=O)(=O)c1cc(N2Cc3ccccc3C2=N)ccc1N1CCOCC1 | -61.2 |
| COc1ccc(NC(=O)c2cccc(S(=O)(=O)N3CCCC3)c2)cc1OC | 2.14 |
| CSCCC(C(=O)NC1=NCCS1)N1C(=O)c2ccccc2C1=O (stereo not shown) | -6.08 |
| O=C(CCN1C(=O)c2ccccc2C1=O)Nc1ccccn1 | 7.12 |
| CCc1cc(=O)oc2c3c(cc(OCC(=O)NCc4ccncc4)c12)OC(C)(C)CC3 | -10.9 |
| O=C(c1cnn2ccccc12)N1CCc2ccccc21 | 7.95 |
| O=C(NCc1nnc(SCC(=O)N2CCCc3ccccc32)o1)c1ccco1 | 15.2 |
| CC(=O)c1ccccc1C(=O)N1CCCC(C(=O)c2ccc(C(F)(F)F)cc2)C1 (stereo not shown) | 5.28 |
| NNC(=O)CCc1nc2ccccc2[nH]1 | 11.1 |
| O=C1C(=O)N(Cc2cccnc2)C(c2ccccn2)/C1=C(/O)c1ccc(Br)cc1 (stereo not shown) | 13.3 |
| O=C(COC(=O)CCC(=O)c1ccc(F)cc1)Nc1ccccc1 | 3.6 |
| CC1(C)N=C(SCC(=O)Nc2ccc(Cl)cc2)C(c2ccccc2)=N1 | -1.06 |
| Cc1cc(C)n2nc(C(F)(F)F)c(-c3ccccc3)c2n1 | 2.1 |
| CCN1CCN(Cc2nnc(-c3ccc(C)cc3)o2)CC1 | 9.79 |
| O=C(CN1CCOCC1)Nc1ccccc1 | 7.23 |
| COc1cccc(OCc2nnc(SCC(=O)NNC(=O)C3CCCCC3)n2C)c1 | 10 |
| COc1ccc(-c2nc(NC(=O)c3ccc(OCC(=O)Nc4ccc(F)cc4)c(OC)c3)sc2C)cc1 | 7.83 |

| SMILES | hERG current change (%, negative = inhibition) at 1uM [%] |
| --- | --- |
| CC(=O)NS(=O)(=O)c1ccc(NC(=O)/C=C/c2cn(-c3ccccc3)nc2-c2ccccc2)cc1 | 19.7 |
| O=C(Nc1ccc2c(c1)N(Cc1ccccc1)C(=O)c1ccccc1S2)NC1CC1 | 6.88 |
| Cc1ccsc1CNC1C2CC3CC(C2)CC1C3.Cl (stereo not shown) | 8.63 |
| Nc1ccc(C(=O)Nc2ccc(OC(F)(F)C(F)F)c(NC(=O)c3ccc(N)cc3)c2)cc1 | 9.48 |
| COc1ccccc1N1CCN(CCCNc2c(C)c(=O)n(C)c(=O)n2C)CC1 | 7.31 |
| C/C(=N/OC(=O)N(C)C)c1ncc(C(F)(F)F)cc1N1CCOCC1 | 12.1 |
| C=CCNC(=O)COc1ccc(S(=O)(=O)N2CCCC2)cc1 | -6.57 |
| O=C(Cc1ccccc1)NNC(=O)c1cnccn1 | 8 |
| CCOc1ccc(NC(=O)C2CSC(c3ccncc3)=N2)cc1 (stereo not shown) | 11.7 |
| O=C(CNC(=O)[C@@H]1Cc2ccccc2CN1)NC1CCCCC1 | 12.3 |
| C/C=C/c1ccccc1OCc1ccc(C(=O)O)o1 | 18.7 |
| COc1ccc(C(=O)N2CCCC(c3nc(-c4cccs4)no3)C2)cc1 (stereo not shown) | -2.12 |
| Cc1ccc(CNC(=O)c2cc(-c3ccccc3)nn2CC2CC(c3cccnc3)=NO2)cc1 (stereo not shown) | -7.34 |
| CCCSC1=C(C#N)C(c2cccnc2)C(C(=O)OCC)=C(c2ccccc2)N1 (stereo not shown) | 5.56 |
| Cc1ccc2cc(CN(Cc3ccco3)C(=O)C3CCCCC3)c(=O)[nH]c2c1C | 6.2 |
| CCCc1nnc(NC(=O)CSc2nc3ccccc3[nH]2)s1 | -0.548 |
| COc1ccc2[nH]c(C(=O)NCCN3CCCCC3)cc2c1 | 6.82 |
| O=C(O)c1cc(-c2ccccc2)nn1CC1CC(c2cccc([N+](=O)[O-])c2)=NO1 (stereo not shown) | 17.2 |
| COc1cc(SC)ccc1C(=O)OCC(=O)NC1CCCCC1 | 7.45 |
| Cc1ccc(CN(C)C(=O)CCNS(=O)(=O)c2ccccc2)o1 | -2.12 |
| CN(C)CCCNC(=O)c1cc(C(=O)c2ccccc2F)c[nH]1 | 7.67 |
| COc1ccccc1NS(=O)(=O)c1cc(Cl)ccc1OC | 9.14 |

| SMILES | hERG current change (%, negative = inhibition) at 1uM [%] |
| --- | --- |
| Brc1ccc(-c2nnc3ccc(N4CCN(c5ccccc5)CC4)nn23)cc1 | 4.42 |
| Cc1ccc(C(=O)NNc2nc3ccccc3nc2C(F)(F)F)cc1 | 12.9 |
| COc1cc2c(cc1O)C(Cc1ccc(O)cc1)[N+](C)([O-])CC2 (stereo not shown) | 11.8 |
| COc1ccc(Nc2n[nH]c(N)c2C(N)=O)cc1 | 7.9 |
| Cc1ccccc1CNS(=O)(=O)c1ccc2c(c1)C(C)(C)C(=O)N2C | 9.75 |
| O=C(COC(=O)c1ccc(O)cc1)Nc1ccc(Cl)cc1 | 16.9 |
| COc1ccccc1C(=O)Nc1cc(C)on1 | 8.96 |
| CN(C)/N=C/C=C1\CCC/C(=C/c2cccs2)C1=O | 7.9 |
| COc1ccccc1OCC(=O)Nc1cccc(S(=O)(=O)NC2=NCCCCC2)c1 | 10.2 |
| O=C(CNS(=O)(=O)c1ccccc1)N1CCCC1 | 13.4 |
| Cc1ncc([N+](=O)[O-])n1CCOC(=O)NC(NCc1ccccc1)C(Cl)(Cl)Cl (stereo not shown) | 7.7 |
| COc1cc(Cl)ccc1NC(=O)COc1ccccc1C(=O)NN | 5.81 |
| COCc1nn2c(N)c(C#N)cnc2c1-c1ccccc1 | 12 |
| CC(C)CCNC(=O)CC1Nc2c3ccccc3nc(=S)n2C1=O (stereo not shown) | 7.45 |
| CC(C)(C)c1ccc(C2(C)NC(=O)N(CC(=O)c3ccc[nH]3)C2=O)cc1 (stereo not shown) | 10.9 |
| COc1ccc(-c2nn(C)c(=O)c3ccccc23)cc1NS(C)(=O)=O | -11 |
| O=C(N/N=C/c1ccccc1O)C1CCCC1 | 8.11 |
| CCOC(=O)c1c(N)sc2c(NC(C)=O)cccc12 | 8.94 |
| O=C(COC(=O)CCc1c[nH]c2ccccc12)Nc1ccc([N+](=O)[O-])cc1 | 14.7 |
| COc1ccc(/C=N/NC(=O)CNC(=O)c2ccc(S(=O)(=O)N3CCCC3)cc2)c(OC)c1 | 6.3 |
| CCCCN(C)CCCNC(=O)c1cn(C)c2ccc(S(=O)(=O)N(C)C3CCCCC3)cc2c1=O | -45.6 |
| COc1ccc(C2CC(c3ccc4ccccc4c3)=NN2C(=O)CN2C(=O)CCC2=O)cc1 (stereo not shown) | 7.79 |
